Reference: PMC4336329 (PLoS ONE, 2015)
About 2,200 (0.71%) of roughly 310,000 compounds showed an effect of 50% or more. Effects have a minus sign here. The list shows a part of the results.

target: human ether-à-go-go-related gene (hERG) potassium channel (human, UniProt Q12809); assay: primary screen, population patch clamp on CHO cells stably expressing hERG
Sequence (Q12809 whole entry, looked up): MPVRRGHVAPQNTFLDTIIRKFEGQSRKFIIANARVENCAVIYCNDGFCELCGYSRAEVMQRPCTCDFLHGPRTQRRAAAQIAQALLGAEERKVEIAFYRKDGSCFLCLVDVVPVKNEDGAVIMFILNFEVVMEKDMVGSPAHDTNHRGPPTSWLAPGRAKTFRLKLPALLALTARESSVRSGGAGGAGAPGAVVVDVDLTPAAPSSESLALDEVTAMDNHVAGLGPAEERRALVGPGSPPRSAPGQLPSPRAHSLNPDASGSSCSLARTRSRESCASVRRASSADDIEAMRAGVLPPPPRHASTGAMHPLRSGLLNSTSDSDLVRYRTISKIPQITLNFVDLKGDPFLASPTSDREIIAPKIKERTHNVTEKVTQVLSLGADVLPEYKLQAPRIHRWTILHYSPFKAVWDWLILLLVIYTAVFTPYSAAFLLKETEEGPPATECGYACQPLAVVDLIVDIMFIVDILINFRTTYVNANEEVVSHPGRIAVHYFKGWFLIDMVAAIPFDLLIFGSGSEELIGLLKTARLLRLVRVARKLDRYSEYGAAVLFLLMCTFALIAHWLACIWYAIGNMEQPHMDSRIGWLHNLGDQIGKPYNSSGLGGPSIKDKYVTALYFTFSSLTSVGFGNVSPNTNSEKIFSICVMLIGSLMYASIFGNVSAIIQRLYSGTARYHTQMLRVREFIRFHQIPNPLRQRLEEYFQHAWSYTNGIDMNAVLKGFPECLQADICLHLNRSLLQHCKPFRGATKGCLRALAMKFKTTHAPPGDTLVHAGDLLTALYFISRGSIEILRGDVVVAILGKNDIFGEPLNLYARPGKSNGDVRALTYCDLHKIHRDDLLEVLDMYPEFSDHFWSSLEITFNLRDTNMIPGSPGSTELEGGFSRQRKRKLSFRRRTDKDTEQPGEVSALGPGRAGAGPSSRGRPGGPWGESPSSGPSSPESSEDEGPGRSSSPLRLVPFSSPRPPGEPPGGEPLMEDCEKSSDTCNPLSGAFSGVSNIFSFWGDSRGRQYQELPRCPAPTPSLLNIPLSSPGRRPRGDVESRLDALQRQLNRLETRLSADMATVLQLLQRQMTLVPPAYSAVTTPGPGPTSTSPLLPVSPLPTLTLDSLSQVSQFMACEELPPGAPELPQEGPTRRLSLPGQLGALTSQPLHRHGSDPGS

Compound	hERG current change (%, negative = inhibition) at 1uM [%]
CN1C(=O)[C@H]2[C@@H](C3CC3)N3C(=O)CN(Cc4ccccc4)C(=O)[C@@]3(C)[C@H]2C1=O	4.32
O=S(=O)(NC1CCCC1)c1ccc(S(=O)(=O)N2CCc3ccccc32)cc1	3.05
O=C(O)C(=O)O.OCCNCCOc1ccccc1-c1ccccc1	5.24
CN(C)c1ccnc(NCc2ccccc2)c1C#N	-3.33
Cl.O=C(CN1CCCCC1)c1ccc(F)cc1	7.09
CN1C(=O)NC(NC(=O)c2ccco2)(C(F)(F)F)C1=O (stereo not shown)	3.87
CCCCCN(C(=O)CCC(=O)OC(C)C(=O)c1ccc(Cl)cc1)c1c(N)n(CCCC)c(=O)[nH]c1=O (stereo not shown)	15
Cn1c(=O)[nH]c(=O)c2c1nc(CN1CCN(c3ccc(F)cc3)CC1)n2CCc1ccccc1	3.89
Cc1occc1C(=O)N/N=C/C=C/c1ccc(N(C)C)cc1	-2.85
CC(C)Cc1csc(NC(=O)c2ccccc2Cl)c1C(=O)O	3.33
CC/C(=N\NC(C)=O)c1ccc(OC(F)F)cc1	15.2
COc1ccc(CNc2ccc([N+](=O)[O-])cc2C)cc1	8.83
CC(C)NC(=O)NC(=O)COC(=O)c1ncc(Cl)c(Cl)c1Cl	16.9
O=C(CNC1CCCCCC1)Nc1ccccc1N1CCOCC1.O=C(O)C(=O)O	9.49
CCOC(=O)CSc1nnc(Cc2ccc(OC)cc2)n1-c1ccccc1	9.68
Clc1ccccc1-c1nnc2sc(-c3ccco3)nn12	-2.59
O=C(NCc1ccc2c(c1)OCO2)C1CCC(=O)N1C1CCCC1 (stereo not shown)	0.703
CN(C)C(=S)Oc1ccccc1-c1ccccc1OC(=S)N(C)C	10.2
COC(=O)c1ccccc1NC(=O)C1COc2ccccc2O1 (stereo not shown)	6.52
Cc1ccc(NNC(=O)C2CCC2)cc1C	4.81
O=C(O)C1CCN(S(=O)(=O)c2ccc3c(c2)OCCCO3)CC1	11.7
NC(=O)CC[C@@H]1NC(=O)[C@H](CO)NC(=O)c2cc([N+](=O)[O-])cc(I)c2NCC[C@@H](C(N)=O)NC(=O)[C@H](Cc2ccc(O)cc2)NC1=O	13.5

Compound	hERG current change (%, negative = inhibition) at 1uM [%]
CCOC(=O)c1cccc(NC(=O)COc2ccc([N+](=O)[O-])cc2)c1	-22.7
Cc1nn(CC(=O)Nc2cc(S(=O)(=O)N3CCOCC3)ccc2Cl)c(C)c1[N+](=O)[O-]	11.9
CN(C)S(=O)(=O)N1CCN(C(=O)N2CCCCCC2)CC1	4.92
CCN(CC)S(=O)(=O)c1ccc(F)cc1	-6.24
NS(=O)(=O)c1ccc(NC(=S)N2CCN(Cc3ccc4c(c3)OCO4)CC2)cc1	7.54
Cc1ccc(CNC(=O)Cc2csc(Nc3nc(=S)[nH]c4ccccc34)n2)cc1	6
CC1=C(C(=O)OCc2ccc3c(c2)OCO3)C(c2ccccc2)NC(=O)N1 (stereo not shown)	4.78
Cc1ccc(S(=O)(=O)N2CCN(C(=O)CC(C)n3cncn3)CC2)cc1 (stereo not shown)	8.67
O=C(O)c1ccc(CS(=O)(=O)Cc2ccccc2F)o1	12.2
CN(C(=O)CSc1nnc(Cc2ccccc2F)n1N)C1CCS(=O)(=O)C1 (stereo not shown)	10.8
CCOc1ccc(NC(=O)CN2CC(c3ccccc3)CC2=O)cc1 (stereo not shown)	3.11
O=C1NN(c2ccccc2)C(=O)/C1=C\c1ccccc1OCC(=O)N1CCOCC1	6.5
COCCNc1nc(N)c([N+](=O)[O-])c(NCC2CCCO2)n1 (stereo not shown)	11
O=C1C=C(c2cccc(Cl)c2)C[C@@H](c2ccc3c(c2)OCO3)C1	12.3
Cc1ncc(C[n+]2csc(CCO)c2C)c(N)n1.Cl.[Cl-]	15.2
CCOC(=O)CNC(=O)c1cccnc1.Cl	3.17
O=C(Cn1cccc1)N1CCc2ccccc21	6.21
C/C(=N\NC(=S)NCc1ccccc1)c1ccc2ccccc2c1OC(F)F	-6.1
COc1cc(/C=N/NC(=S)NC2CC3CC2C2C=CCC32)ccc1O (stereo not shown)	10.1
O=C(CSc1nc2nc(-c3cccs3)cc(C(F)(F)F)c2c(=O)[nH]1)C(F)(F)F	4
O=C(COC(=O)c1ccc2ccccc2n1)NC1CCCCC1	11.3
C=CCOC(=O)C1=C(C)Nc2nnnn2C1c1ccc(OC)cc1OC (stereo not shown)	-6.71

Compound	hERG current change (%, negative = inhibition) at 1uM [%]
O=S(=O)(Nc1ccc2c(c1)OCCO2)c1c(F)cccc1F	8.3
CCC(C)[C@H](NC(=O)C1CC(=O)N(c2ccc3c(c2)OCCO3)C1)C(=O)NC1CCCC1 (stereo partly shown)	13
Cc1ccc(N(CC(=O)N/N=C/c2cccs2)S(C)(=O)=O)cc1Cl	0.412
COc1ccc(NC(=O)CN(C)S(=O)(=O)c2ccc3c(c2)c(=O)n(C)c(=O)n3C)cc1	-2.04
O=C(Nc1nncs1)C1c2ccccc2Oc2ccccc21	7.61
Cc1cccn2c(=O)c(C=O)c(N3CCCCC3)nc12	2.05
O=C(c1cnn2c(C(F)F)cc(-c3ccccc3)nc12)N1CCSCC1	6.07
CCOc1cccc(-c2nnc3sc(-c4cccs4)nn23)c1	1.84
C=CCNCCOc1c(C)cc(C)cc1Cl.O=C(O)C(=O)O	5.06
Cc1ccccc1NC(=O)c1ccc(CN2CCC(Cc3ccccc3)CC2)cc1	-38
COc1cc([N+](=O)[O-])ccc1NC(=O)NNC(=O)C(C)Oc1ccc(F)cc1F (stereo not shown)	2.74
Cc1sc2ncnc(SCC(=O)N3CCOCC3)c2c1C	12
O=C(O)C(=O)O.O=C(c1cccs1)N1CCN(Cc2cccnc2)CC1	12.2
CC1C(=O)CCCCCCCCCC2C1(N1CCOCC1)CS2(=O)=O (stereo not shown)	0.765
Fc1ccc(-c2ccnc3nc(-n4cccc4)nn23)cc1	1.47
CSc1ccccc1NC(=O)CCc1ccccc1	0.485
COc1ccc2oc(=O)c(C(=O)NCc3ccco3)cc2c1	15.4
O=C(Cc1ccccc1)NN1C(=O)C2C(C1=O)C1C=CC2C12CC2 (stereo not shown)	5.59
CCOC(=O)C1CCN(CC(=O)N(CC(C)C)c2c(N)n(CC(C)C)c(=O)[nH]c2=O)CC1	2.99
Cc1cc(Nc2ccccc2)nc(N2CCOCC2)n1	4.19
C/C=C(/C)C(=O)O[C@@H]1c2c(ccc3ccc(=O)oc23)O[C@@H]1C(C)(C)OC(C)=O	9.43
COc1ccc(-c2ccc(=O)n(Cc3c(F)cccc3Cl)n2)cc1	10.8

Compound	hERG current change (%, negative = inhibition) at 1uM [%]
CCCc1cc(C(=O)Nc2ccc(F)cc2F)no1	9.78
Cc1cc(C)cc(NC(=O)C2CC3CCC2C3)c1 (stereo not shown)	14.9
COc1ccc(CNC(=O)CN2CCN(c3ccccc3)CC2)cc1	13.1
Cc1ccc(S(=O)(=O)N(C)c2ccccc2C(=O)Nc2ccc(F)cc2F)cc1	17.9
COc1ccc(NC(=O)c2cn(CCC#N)nc2-c2ccc([N+](=O)[O-])cc2)cc1	7.94
CCCCn1c(N)c(N(Cc2ccccc2OC)C(=O)C2=COCCO2)c(=O)[nH]c1=O	17.1
CSCCC(NC(=O)C12CC3CC(CC(C3)C1)C2)C(=O)OCC(=O)c1ccc(C)cc1 (stereo not shown)	19.7
Cc1nn(-c2ccccc2)c(N2CCCC2)c1/C=N/NC(=O)c1ccccc1O	6.99
CC(=O)C1=C(C)N(CC2CC2)C(=O)N[C@H]1c1ccccc1	16.4
Cc1noc(-c2ccc(Cl)cc2)c1C(=O)O/N=C(\N)c1ccc(C(C)(C)C)cc1	5.65
COC(=O)C1=C(O)/C(=C\c2ccc(CNS(=O)(=O)c3ccccc3)o2)N=C1C	-1.79
COc1ccc(C)cc1NC(=O)C1CCCN(S(=O)(=O)c2ccc(-n3cnnn3)cc2)C1 (stereo not shown)	-71.4
COc1ccccc1N1CCN(c2nc(C)cc(C)c2C#N)CC1	11.5
Cc1ccc(CNC(=O)Cn2nnc3ccccc3c2=O)cc1	8.75
COc1cccc(NC(=O)C2(S(=O)(=O)c3ccc(Cl)cc3)CC2)c1	5.39
CCOc1cc(C(=O)OCC(=O)c2c(N)n(C)c(=O)n(C)c2=O)cc(OCC)c1OCC	-3.92
CC(C)CN(CCCNC(=O)CN1C(=O)COc2ccc(S(=O)(=O)N3CCC(C)CC3)cc21)CC(C)C	9.07
CN1CCN(c2nc(Cl)ncc2F)CC1	4.77
Cc1cccc(NC(=S)NC2CCCCC2)n1	3.02
CSCCC(NS(=O)(=O)c1ccccc1F)C(=O)NCC(c1ccc(F)cc1)N1CCOCC1 (stereo not shown)	7.37
O=C(Nc1ccccc1Cl)N1CCN(c2ccc3nnc(-c4ccc(F)cc4)n3n2)CC1	-23.7
Cc1ccc(C(=O)NC(=S)NNC(=O)CC#N)cc1	17.7
